# Read counts are not given, so values of variants with three or more changes are uncertain.
# B1: OR4K15 (parent)
# chain: GUUAACGGUCAUAGGCCAUGGAAACUAGGAGCACCAUUUCGCUGCCAGUGAAGAAAUGAACAAAGAAAAUCUGGGCCAGGCAGGCAUCAAAAGAAAUAGUCUUGCGCUCAACCAGAAAGUCUGUAAUCAUUUUAAGGGUA
# Variants of: B1
# Test: self-cleavage, relative activity (ratio to wild type); higher = more cleavage; in vitro, sequencing; the parent is a self-cleaving ribozyme
row,Variant,self-cleavage
1,A18G A22G A66U U132C,0.49
2,A18G G65U G73A C77U,0.26
3,A18U G74U A92G U108G A117G,0.03
4,A18U A51G A78G A86U,0.38
5,A18G A22G U124C,0.82
6,A18U U26C A59G G73A A110U U120C,0.06
7,A18G A62U A96G C101A,0.16
8,A18G A54G U108C A117G,0.03
9,C16U A96G U103C,1.43
10,C16U U43G A82G,0.77
11,A18U A117G U133C,1.35
12,A18G U37C G41A U103C A134G,0.93
13,A18U U39C A56G A62G A125G,0.32
14,A18G A82G U122C A126G,0.75
15,A18G A117G U122A,1.13
16,C16G A23C G123A,1.6
17,A18U A66C U127C,1.78
18,C17U U57C A111G,0.03
19,A18G A67G A78G,0.5
20,A18G A68U U122C,1.79
21,A18G G29U A94G A96G,1.46
22,A18U C34A A66G U127C,1.45
23,A18G A62G A111G U120C,0.04
24,A18G A23U A62U U139G,1.51

row,Variant,self-cleavage
1,A18U A24G A66G,1.56
2,A18G A63G U120C U127C,0.69
3,A18G U37C A67G,1.66
4,C17U A23G A52G A63U,0.42
5,U19A A52G A63G U139G,1.1
6,A18U A96U U97G,1.72
7,A18U A23C U39A C40U U97C,1.42
8,A18U A54G A111G,0.01
9,A18G A23G U37C A82G,0.23
10,A18U A95C U132C,0.55
11,A18U A66G A94G A117G,0.71
12,A18G A27U U38C A78C U87A U124C,0.12
13,A18G A24G A64C A90G,1.48
14,C16U A30G U108C,0.05
15,A18G A36G A51G U120C,1.07
16,A18U A47G U97C,0.73
17,U19A A55G A89U G104U A118G,0.01
18,C16U A52G U70C U102A,0.79
19,A18G A52G A64G,1.44
20,A18C U39C A64G A95G,1.6
21,C16G A51G A66G A116U U131C,0.07
22,A18G U103C A114G,0.34
23,A18G A118G U130C,0.5
24,C16A A51G A82U,0.29

row,Variant,self-cleavage
1,A18G A90G A98G U102A C121A,0.13
2,A18G A68G U102C A118C A129U,1
3,A18G U49A A118G,1
4,A18G A27G U49A A82G C105A,0.06
5,A18G A22G A55G A59G U103C U139A,0.43
6,C17A A55G U108A U120C,0.01
7,A18U U57C A92G A140U,0.93
8,U19A A30U U108C A118G,0.01
9,A18U A23G G137A,1.86
10,G15U U39G A96G U131C,1.23
11,A18G A91G A117G,1.6
12,G15U A22G U43A A62G U70A A110C A117G U139A,0.1
13,U19A A23G A33C U43C U72C U87C A116G,0.1
14,A18G C46U A126G,1.13
15,A18G A27U U49A U57C A96G U131C,0.36
16,A18G A63G U122C,1.21
17,A18U A60G A89G U103C A110G,0.16
18,A18U A95G U103C,1.19
19,U19A A22G A67G,1.1
20,U19A A23U A68G C121A,1.52
21,A18U A33G A67G G80A G93A,0.13
22,A18G A51G A54G A82U C113U U122C,0.01
23,A18G A23G C88A,0.65
24,A18G C32A A126U,1.11

row,Variant,self-cleavage
1,A18G U100C U103C A114G,1.46
2,C17A A86G U122C A125U,0.91
3,A18G A23G U70C U102C,0.83
4,A18G U38C C40A,0.45
5,U19A A54G A69G A90G,1.16
6,A18U A96G A118G,1.59
7,A18G A33G A47G,0.13
8,A18G U100C G136A,2.27
9,A18G A59U A111G U127C,0.01
10,A18U A126C A140G,1.12
11,A18G A30G U132A,1.14
12,A18U U37C A56G,1.46
13,A18G A55U A89C U122A,0.93
14,C16A A89G A96G,1.23
15,A18G A110G A140G,0.18
16,A18G A63G A82U U131C,0.12
17,U19A A33G A62G,1.46
18,A18G U49A A64G U100C,2
19,A18G A66G A96G C128U,1.19
20,A18U A96G U124C,1.07
21,A18G A33G U87A,1.45
22,A18G U39C G58A,1.91
23,C17U A66G C85U U108C A117U,0.01
24,C17U U124C U132C,0.73

row,Variant,self-cleavage
1,A18U U49C U108C,0.01
2,A18U U127C U132C G137C,0.85
3,A18G U103C G104A,0.01
4,A18C A98G U132C,0.29
5,A18G U39C U57G A92G,0.84
6,A18G A27U C34U U102C C105A,0.03
7,A18C G75A A89G A90G,0.16
8,C16U U43C A68G A96G,1.93
9,U19A A30G A56G U127G U131A,0.96
10,A18C U39A U57C A86G,0.57
11,A18U A56G A78G A90G,0.08
12,A18U U57A A67G A78G U102C,0.26
13,A18G A27G U38C A78U,0.83
14,A18G U87C A90G,0.19
15,C16U G31A U43A A56G U57C U97C A126U A129G U139C,0.57
16,U19A A30U A78U A86G,0.11
17,A18U A96G G106U A117G,0.01
18,A18G A55U A67G U100A A118G U122C,0.47
19,A18G A59G A68U A69G A116G,0.35
20,U19A A67G A96G,1.47
21,A18G A33U C88U U102C A140U,1.68
22,G15U A22G A62U A78G,0.2
23,A18G G41A A56G A95G U102A,1.88
24,A18G U70A U127C,0.51

row,Variant,self-cleavage
1,A18G A54G A63G,1.78
2,U19A A52G A60G,1.21
3,A18U U49A U72G A94G,0.12
4,C16U A59C U103C,0.6
5,C16U U87A A118G,0.76
6,A18G A51G A55G U72C C77A U103C,0.27
7,C16A A96G A118G,0.21
8,A18U A54G U57C A66G,2.08
9,U19A A30G A90G,0.71
10,C17U A24G U43C U97A,1.47
11,A18U A78U A82G,0.07
12,A18U A27G U49C A54U A114G A134G,0.28
13,A18G U49A G80A U124A,0.14
14,U19A A64U U102C U131C U132C,2.55
15,A18G A55G U139C,1.13
16,A18C A22C A89G,1.06
17,C17U C109U A135G,0.45
18,A18G A116G A125G,0.32
19,A18G A90U U127C,2.04
20,U19A A23G A68G,0.39
21,A18G A30U A68G,0.92
22,A18G A69G A86G A96G,1.78
23,A18G U57A U72C,0.19
24,A18G U43C A78G A98G,0.17

row,Variant,self-cleavage
1,C17U A64U A110G,0.06
2,A18U A47C U122C,1.41
3,A18G U37C A118G U122C,1.28
4,A18G U43C A64G A78G,0.16
5,A18G A33G A68G A82U,0.1
6,A18U A24G U87C U100C U127C,1.73
7,C16A G31A A55G A129G,1.94
8,A18G A54G A78U A90C A91G,0.16
9,A18U A52G A66G,1
10,A18G U39A A62G U103C A125G,0.38
11,A18G C32A U122C C128U,0
12,A18C A24C A125G,0.38
13,U19A A89G A92G U132C,1.25
14,A18G U39C A90G U122A,0.87
15,U19A A36U G75C U130C,0.08
16,C17U A52G U120C U127C A129G,0.06
17,U19A A23U A98G U127A,0.65
18,U19A A63U A92G G93A,2.18
19,A18U A52G U57A A89G,0.79
20,A18G A33G A59G A110G,0.27
21,U19A A67G A91G,0.55
22,A18G U37C A116G,1.04
23,A18G U43C U131C,1.83
